The other results are listed elsewhere or left out. Values were computed here from the reads of four pooled replicates and scatter widely.
biological target: T1, Pho4 (S. cerevisiae) (UniProt P07270); test: relative binding free energy (BET-seq); higher = weaker binding; details: reference: library average
T1 sequence: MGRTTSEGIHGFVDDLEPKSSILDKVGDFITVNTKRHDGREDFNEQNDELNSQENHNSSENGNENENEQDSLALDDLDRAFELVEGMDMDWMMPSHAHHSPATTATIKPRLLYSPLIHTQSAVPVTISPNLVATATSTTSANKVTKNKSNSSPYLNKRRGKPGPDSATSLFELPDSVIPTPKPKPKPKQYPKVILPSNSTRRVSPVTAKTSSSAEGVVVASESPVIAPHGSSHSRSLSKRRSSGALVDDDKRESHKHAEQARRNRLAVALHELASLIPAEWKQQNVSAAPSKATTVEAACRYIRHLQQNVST

Relative binding free energy, 0 kcal/mol:
TGTCGCACGTGCGGTT
CATTTCACGTGGTGAT
TCTGGCACGTGATTTG
ATTGACACGTGTGGGC
CATGACACGTGGTGGC
GTTAACACGTGTGGGC
TTTATCACGTGGGGAC
AGCGGCACGTGTGTGA

Relative binding free energy, 0.31 kcal/mol:
GATTTCACGTGGGGTC
ATTTTCACGTGACTGG

Relative binding free energy, 0.41 kcal/mol:
ATAGTCACGTGAGTTT

Relative binding free energy, 0.32 kcal/mol:
TGGTGCACGTGAAGTG

Relative binding free energy, 0.26 kcal/mol:
TTTCGCACGTGAGATG
AATCTCACGTGATGGT
TTGGTCACGTGTGAGG

Relative binding free energy, 0.21 kcal/mol:
TGGGTCACGTGTGGGC
CTTATCACGTGCGTTT
CAAGTCACGTGAGTGT
TTCTGCACGTGAGTAT
AATTCCACGTGGAGTG
AGTTTCACGTGGTTAG
GTCGTCACGTGGAGGA

Relative binding free energy, 0.01 kcal/mol:
AGTGGCACGTGTCAGA
TTCGGCACGTGTATTT
TATCGCACGTGTGGTG
TGAGTCACGTGGTGCA

Relative binding free energy, 0.09 kcal/mol:
ATATACACGTGTTGGC
GTTTCCACGTGGGTAG
ATTGTCACGTGGAGTT
TTTTGCACGTGATAGC
GTGGCCACGTGTTATT
GTCTGCACGTGTGGGA
AGTTACACGTGTGTTG
TGCCACACGTGGAGGT

Relative binding free energy, -0.04 kcal/mol:
TGATGCACGTGTGCCG
ATCTGCACGTGCGTTG
ATCGGCACGTGTTCGG
AGTAACACGTGTTTTT
GCCAGCACGTGGAGGG
TTTGCCACGTGCGAGT

Relative binding free energy, 0.4 kcal/mol:
GGCTTCACGTGAGTTT

Relative binding free energy, 0.16 kcal/mol:
CATATCACGTGTAGTG
TCTGTCACGTGTGAGA
AAAGTCACGTGGCATG

Relative binding free energy, -0.09 kcal/mol:
AGTAGCACGTGGAGCG

Relative binding free energy, -0.11 kcal/mol:
AGTAGCACGTGGCGCG
GTGGGCACGTGGCTTT
GCTGGCACGTGACGGG
TATGCCACGTGCGGTT
TGCGGCACGTGTGTAA
TATGGCACGTGCGTTA

Relative binding free energy, 0.12 kcal/mol:
TTTTCCACGTGTTTTA
TGGGCCACGTGATGGT

Relative binding free energy, 0.1 kcal/mol:
CTTGTCACGTGTTATC
GAGGACACGTGGTTTT
ATGGTCACGTGCAATT

Relative binding free energy, 0.07 kcal/mol:
CTAGGCACGTGATGTG
TTAGACACGTGGTCAA
ATAGCCACGTGTGAGT

Relative binding free energy, 0.53 kcal/mol:
TGGTTCACGTGAAGTT

Relative binding free energy, -0.19 kcal/mol:
ATAGGCACGTGGGGCT
GCGGGCACGTGCGGCG
GGAGGCACGTGGCCGT

Relative binding free energy, 0.3 kcal/mol:
GGGTACACGTGGAATA
TGCTTCACGTGTTTGG
TTATTCACGTGATTGG

Relative binding free energy, 0.35 kcal/mol:
GGGTTCACGTGTAGGA
GTTTTCACGTGGTTAT
GTAATCACGTGATAGG

Relative binding free energy, 0.24 kcal/mol:
TTATTCACGTGACGGG
TTACTCACGTGAAGTG

Relative binding free energy, 0.34 kcal/mol:
TGGATCACGTGAGGTT

Relative binding free energy, 0.28 kcal/mol:
TGTATCACGTGGAAGC
CGGGTCACGTGTGGCA
GGTTGCACGTGAATAA

Relative binding free energy, -0.24 kcal/mol:
TAATGCACGTGGGTAC

Relative binding free energy, 0.43 kcal/mol:
TGGTTCACGTGATGTT
GGGGTCACGTGAAGTT
CTATGCACGTGAATTT

Relative binding free energy, 0.5 kcal/mol:
GATTTCACGTGTGCGG

Relative binding free energy, 0.18 kcal/mol:
GAAGCCACGTGAGGGT
AAATTCACGTGGAGGG
TTTCTCACGTGGTGAT
GGTTACACGTGTTTTC
TCTTTCACGTGGGGTG
CGTGTCACGTGATGCT

Relative binding free energy, 0.39 kcal/mol:
GGGTTCACGTGACGTG
GTCGTCACGTGAAAGG

Relative binding free energy, -0.18 kcal/mol:
TGAAGCACGTGTTCGT
TGGAGCACGTGGCAGG
ATATGCACGTGGGTTG

Relative binding free energy, 0.19 kcal/mol:
GAGAACACGTGAGGGT
ATGAGCACGTGAGAGG
GGGGTCACGTGCCGGC
GGGATCACGTGCTGTA

Relative binding free energy, 0.15 kcal/mol:
TCGGTCACGTGTAGCA
GATGGCACGTGAAATG
TAGGTCACGTGTGGGA
TAGAACACGTGTAGTT

Relative binding free energy, -0.03 kcal/mol:
GGTCGCACGTGGGGCC
TTCGTCACGTGGGTCT

Relative binding free energy, 0.23 kcal/mol:
GTAATCACGTGAAGTG
GATTTCACGTGGGTCA
TTCGTCACGTGGAAAT
GAGGTCACGTGGTTTT
AGGGTCACGTGTTAAT

Relative binding free energy, 0.29 kcal/mol:
TTGTTCACGTGTGAGG
ATATTCACGTGTAGTC
AGTGTCACGTGAATCT
AATTTCACGTGAGGTG
TAGGTCACGTGATGGG

Relative binding free energy, -0.02 kcal/mol:
ATGATCACGTGGGTAG
ATTTGCACGTGCGGTT
GGAGGCACGTGGAGTT
TTTCGCACGTGCGGGT
TGAGGCACGTGTGTGT

Relative binding free energy, 0.25 kcal/mol:
TTAGTCACGTGTGTAA
GTTGTCACGTGTCTCG
AAGTTCACGTGTGGTG
CCATTCACGTGTTGGG
TTGGACACGTGAGGAG
GAGGTCACGTGTGACT

Relative binding free energy, -0.25 kcal/mol:
TCTGGCACGTGGTGCG

Relative binding free energy, 0.2 kcal/mol:
CGGTCCACGTGTTTTT
CTCATCACGTGTTTGG

Relative binding free energy, -0.08 kcal/mol:
TAGTACACGTGGGTTG
GTTGCCACGTGTGGAT

Relative binding free energy, -0.13 kcal/mol:
GCAGTCACGTGGGTGA
TGCAACACGTGGTGGT

Relative binding free energy, 0.02 kcal/mol:
GAATGCACGTGGGAGT
GGGATCACGTGGGGGT
ATGAGCACGTGATTGA
GATAGCACGTGTCAGG
TTTTGCACGTGTTCCT

Relative binding free energy, 0.11 kcal/mol:
GTTTGCACGTGTTGCG
TTGACCACGTGATTTG
GATTGCACGTGTATAG
ACAGGCACGTGAAGTG

Relative binding free energy, -0.01 kcal/mol:
AAGGGCACGTGTATAG
GTTCGCACGTGTTAGG
GTAATCACGTGGTGCG
TTGTGCACGTGTGTAT
CACTACACGTGGGGGG
AATTACACGTGGGGAT

Relative binding free energy, 0.06 kcal/mol:
ATATTCACGTGGGATA
TTGTACACGTGTGATG
AATAGCACGTGTAATG
GGTTGCACGTGATGTA
CAGTACACGTGTATGG
GAGTACACGTGGTCTG
TAACTCACGTGGTGTA

Relative binding free energy, 0.33 kcal/mol:
AAGGTCACGTGAGTAG
ACTTTCACGTGTGGTG

Relative binding free energy, 0.14 kcal/mol:
CGTATCACGTGGATTG
GTGTGCACGTGTCGGA
GGACTCACGTGCGGGT

Relative binding free energy, 0.17 kcal/mol:
GAGGACACGTGGATGT
GAAATCACGTGCGGGG
TGAGTCACGTGTGTGG
CTCGGCACGTGAATGT
GCTTTCACGTGTTAGG
GGGTACACGTGTGGAG
TTATACACGTGTAAGT
GAAGACACGTGTCGGG
TGAGTCACGTGTGGTG

Relative binding free energy, 0.13 kcal/mol:
TTAGTCACGTGTTGTA
GGTGGCACGTGATATT
ACTCGCACGTGATGTG
AATGACACGTGTAAGG

Relative binding free energy, 0.05 kcal/mol:
ATATACACGTGTGGCG
ATTGACACGTGTGAAG
GTAGACACGTGCGAGG
TTGTGCACGTGGAACG

Relative binding free energy, -0.2 kcal/mol:
TGGCGCACGTGGGCGT
TAGCGCACGTGGTTGG
TGGGGCACGTGCTCAT

Relative binding free energy, -0.17 kcal/mol:
AGGAGCACGTGGGGAA
ATAAGCACGTGTTATG

Relative binding free energy, -0.16 kcal/mol:
CACTGCACGTGGTGGG

Relative binding free energy, -0.12 kcal/mol:
AGGAGCACGTGTTGTC

Relative binding free energy, 0.08 kcal/mol:
GTTTCCACGTGTTTGA
GTTGACACGTGGAGTC
TGTCGCACGTGAGCGT
GATAGCACGTGTAGTT

Relative binding free energy, -0.07 kcal/mol:
TGTGTCACGTGGTATC
ATAAACACGTGGTGTT
TTAGTCACGTGTTATA

Relative binding free energy, -0.21 kcal/mol:
TGGTGCACGTGTTACA
CGGTGCACGTGGGAGT

Relative binding free energy, 0.22 kcal/mol:
AAAGTCACGTGCTGGA
GTCGTCACGTGTCGGG
AGTATCACGTGTGTTG
TTATGCACGTGAAGGA
GTTTCCACGTGTGGGG

Relative binding free energy, -0.1 kcal/mol:
TGGTGCACGTGTCTGA
GGTCGCACGTGGGTAG
GGACGCACGTGGTGGA
AGCGGCACGTGTGTTG
GGGGGCACGTGGACGC

Relative binding free energy, -0.15 kcal/mol:
AAGGGCACGTGGACTG
TATGGCACGTGTGCAG

Relative binding free energy, 0.27 kcal/mol:
AATGACACGTGTAGAT
AGTCGCACGTGAGTGC
GCAATCACGTGTAGTT
TATCTCACGTGTATTT

Relative binding free energy, -0.06 kcal/mol:
CATATCACGTGGGTAG
GTATGCACGTGGCTTT
GTGGGCACGTGTCCTG
GGAAGCACGTGTTATT
TGTAGCACGTGGGAGA
ATAAGCACGTGTCTGG

Relative binding free energy, -0.05 kcal/mol:
ATGGTCACGTGCGCGT
ATCTGCACGTGGGTGA
TTCGGCACGTGCTTGG
AGTAGCACGTGTTCGG

Relative binding free energy, -0.14 kcal/mol:
AGCGTCACGTGGGTAA
TGGTGCACGTGGGGAA
CATGGCACGTGTGCGT

Relative binding free energy, 0.04 kcal/mol:
TCGGGCACGTGGTGGA
TAAAGCACGTGAGAGG
CTGGGCACGTGTAGTC
TAGGGCACGTGATGGC
CAAGGCACGTGATAGG

Relative binding free energy, -0.22 kcal/mol:
AGTAGCACGTGCGCGG
TGAGGCACGTGGGGGA

Relative binding free energy, 0.03 kcal/mol:
TTAAACACGTGTTTTC
TTAGACACGTGTTGAG
TTCGCCACGTGTGTAG
TACGACACGTGGTGGG
TAATACACGTGTGTCG
